According to PubChem BioAssay AID1347073 (National Center for Advancing Translational Sciences (NCATS), 2019):
Screen size: about 45,000 compounds; about 200 (0.44%) were called active. Roughly 7% stayed inconclusive and do not appear here. The call rests on the fitted dose curve; in most records, active means well fitted activation curve with a large enough effect; inconclusive means small, poorly fitted or top-dose-only effect; inactive means no such curve, though single readings can be large or run the other way. The list shows a part of the results.

Assay: qHTS of TDP-43 Inhibitors: NCGC Sytravon Library Screen; further: nearly all actives have a fitted effect of over 55% in size; on growth rescue (activation): 0% is about no effect
Conditions: yeast TDP-43 toxicity rescue, BacTiter-Glo growth, 24 h; series mostly up to 46.1 µM; growth rescue (activation): at the top concentration
Procedure, shortened: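 TDP-43-expressing yeast, pregrown in raffinose, seeded at OD600 0.02 in galactose medium with compound for 24 hr at 30 deg C. Growth read by BacTiter-Glo luminescence, so rescue of toxicity appears as activation.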
Potency means the concentration at half of the fitted maximal effect.

Structure (SMILES)	growth rescue (activation)	Potency
COC(=O)CNC(=O)c1cccc(-c2ccc(OC)cc2)c1	inactive: 23.3%	–
CCCC1=NN(c2ccc([N+](=O)[O-])cc2)C(=O)/C1=C/N(C)C	inactive: 6.7%	–
CCN(CC(=O)Nc1ccc(NC(C)=O)cc1)CC(=O)Nc1cccc(Cl)c1	inactive: -20%	–
CCc1nc(NCC2CCCO2)c2oc3ccccc3c2n1 (configuration not stated)	inactive: -1.46%	–
COc1cccc(OCCCN2CCCCCC2)c1	inactive: 1.49%	–
Cc1nn(-c2ccc(F)cc2)c(Cl)c1/C=C/C(=O)OCC(=O)Nc1ccc(F)cc1F	inactive: 0.59%	–
CCOC(=O)C1CCCN(C(=O)/C=C/c2ccccc2[N+](=O)[O-])C1 (configuration not stated)	inactive: 25.5%	–
CCOC(=O)N1CCC(NC(=O)c2ccc3c(c2)N(Cc2ccccc2)C(=O)c2ccccc2S3(=O)=O)CC1	inactive: 7.37%	–
COc1cccc(C(=O)N2CCCN(C)CC2)c1OC	inactive: 3.54%	–
CCOC(=O)c1cc(-c2ccccc2)sc1NC(=O)C(C)(C)C	inactive: 33.9%	–
CCNC(=O)NC(=O)C(C)OC(=O)CCCc1nc2ccccc2s1 (configuration not stated)	inactive: 19.4%	–
COCCNc1ccc(N2C(=O)CCCC2=O)cc1[N+](=O)[O-]	inactive: 2.17%	–
CC(OC(=O)c1ccc(S(=O)(=O)NCc2ccco2)cc1)C(=O)Nc1ncc(Cl)cc1Cl (configuration not stated)	inactive: 5.91%	–
COc1ccc(C(C)(NC(C)=O)c2nc(-c3cncnc3)cs2)cc1 (configuration not stated)	inactive: 1.33%	–
O=C(CN1CCc2ccccc2C1)Nc1cc(S(=O)(=O)N2CCOCC2)ccc1N1CCOCC1	inactive: -0.905%	–
Cc1c(C(=O)N2CCC(C)(C(=O)NS(=O)(=O)C3CC3)C2)oc2ccccc12 (configuration not stated)	inactive: -9.51%	–
Cc1cccc(OCCCC(=O)Nc2ccc(N(C)C)cc2)c1	inactive: 8.4%	–
COc1ccc(NC(=O)c2nc(C)n(-c3ccc([N+](=O)[O-])cc3)n2)cc1	inactive: 25.4%	–
CC(C)C(C)NC(=O)CN1C(=O)NC(C)(c2ccc3ccccc3c2)C1=O (configuration not stated)	inactive: 1.05%	–
CCOc1ccc(S(=O)(=O)N(CCO)CCO)cc1-c1nc2c(C(C)(C)C)nn(C)c2c(=O)[nH]1	inactive: 10.1%	–
CC1(C)CC(=O)C(C2c3ccccc3S(=O)(=O)c3ccccc32)C(=O)C1	inactive: -6.72%	–
CN(c1ccccc1)S(=O)(=O)c1cccc(NC(=O)CCNC(=O)c2ccc([N+](=O)[O-])cc2)c1	inactive: -13%	–

Structure (SMILES)	growth rescue (activation)	Potency
Cc1cc(C)n(CCNC(=O)c2cc(COc3c(F)cccc3F)on2)n1	inactive: 15.6%	–
CC(=O)c1cccc(NC(=O)C(C)N(C)CC(=O)Nc2ccc(Cl)cc2)c1 (configuration not stated)	inactive: 16.7%	–
O=C(c1ccc2c(c1)OCO2)N1CCN(CCN2C(=O)c3cccc4cccc(c34)C2=O)CC1	inactive: 23.6%	–
Cc1ccc(-c2oc3ccccc3c(=O)c2OCC(=O)O)cc1	inactive: -0.661%	–
Cc1cc(Cl)ccc1OCC(=O)OC(C)C(=O)N(C)C (configuration not stated)	inactive: 11.9%	–
O=C(NC(=S)N1CCCCCC1)c1ccc(Cl)cc1Cl	inactive: -1.76%	–
COc1ccc(-c2cc(C(F)(F)F)n3ncc(C(=O)N(C)Cc4ccccc4)c3n2)cc1	inactive: 18.7%	–
O=C(N/N=C/C(Cl)=C/c1ccccc1)c1ccccc1F	inactive: 9.33%	–
Cc1ccc(/C(N)=N/OC(=O)COc2ccc(Cl)c(C)c2)cc1	inactive: -4.9%	–
O=c1c2ccccc2c(C=Nc2ccc(O)cc2)c(O)n1-c1nccs1	inactive: 11.7%	–
O=C(NCc1ccco1)c1c(F)cccc1Cl	inactive: 18.1%	–
CC(C)(/C=N/NC(=O)CSCc1ccccc1Cl)CCC#N	inactive: -3.72%	–
CCC1(CC)NC(=O)N(CC(=O)Nc2sc3c(c2C(N)=O)CCC3)C1=O	inactive: 19%	–
CCNC(=S)N(CCc1cccc(C)c1)Cc1cc2cc(OC)c(OC)cc2[nH]c1=O	inactive: -19.7%	–
CS(=O)(=O)N(CC(=O)N1CCCCC1)c1sc2c(c1C#N)CCCC2	inactive: 27.8%	–
COc1ccc(C(N)c2csc(Nc3ccc(C(=O)NCCCO)cn3)n2)cc1 (configuration not stated)	inactive: 13%	–
CCc1ccc(NC(=O)CC2C(=O)NCCN2C(=O)c2ccccc2OC)cc1 (configuration not stated)	inactive: 5.24%	–
Cc1cc(C)nc(N/N=C/c2cc(Br)ccc2O)n1	inactive: -20.1%	–
Cc1cccc(-c2n[nH]c(=S)n2-c2ccccc2)c1[N+](=O)[O-]	inactive: 18.2%	–
COC(=O)c1ccc(NC2c3ncccc3C(=O)N2Cc2cccs2)cc1 (configuration not stated)	inactive: -8.79%	–
CCN1CCN(c2ncc(C(=O)Nc3cc(Cl)ccc3OC)c3ccccc23)CC1	inactive: -3.01%	–
COc1ccc(-c2nc(O)c3cnccn23)cc1	inactive: 5.94%	–

Structure (SMILES)	growth rescue (activation)	Potency
CC(c1nnnn1C1CCCCC1)N(Cc1ccccc1)Cc1cccnc1 (configuration not stated)	inactive: 27.3%	–
Cc1ccc(S(=O)(=O)N2CCCCC2)cc1NC(=O)CSc1nnc(C2CC2)n1C	inactive: -2.85%	–
O=c1cc(CSc2nnc(COc3ccccc3)n2-c2ccccc2)c2ccccc2[nH]1	inactive: 15%	–
COc1ccc(OC)c(NC(=O)CCNC(=O)Cn2ccc3ccccc3c2=O)c1	inactive: -1.89%	–
COC(=O)c1ccccc1NC(=O)CNCCc1ccc(OC)c(OC)c1	inactive: -5.44%	–
CCc1ccccc1NC(=O)COc1ccc(N2CC(C(N)=O)CC2=O)cc1 (configuration not stated)	inactive: 9.83%	–
Cc1ccc(S(=O)(=O)N2CCN(C)CC2)c2nsnc12	inactive: 3.64%	–
CC(=O)c1ccc(OC(C)C(=O)NCC2(N3CCOCC3)CCCCC2)cc1 (configuration not stated)	inactive: 20.7%	–
N#Cc1ccccc1Sc1ccccc1C(=O)OCC(=O)NC1CCS(=O)(=O)C1 (configuration not stated)	inactive: -2.92%	–
CCOC(=O)C1=C(CC)OC(N)=C(C#N)C1c1ccc(OC)c(C)c1OC (configuration not stated)	inactive: 5.73%	–
CCN(CC)C(=O)CSc1nc(C)cc(C)c1C#N	inactive: 4.39%	–
COC(=O)CN1C(=O)C(O)(CC(=O)c2ccccc2)c2ccccc21 (configuration not stated)	inactive: -0.464%	–
O=C(O)COn1c(-c2ccccc2)nc2ccc([N+](=O)[O-])cc21	inactive: -1.64%	–
C=CCN(CC(=O)NCC1CCCO1)C(=O)CCC(=O)Nc1cc(C)on1 (configuration not stated)	inactive: 10.5%	–
CC(=O)Nc1ccc(NC(=S)NC(=O)/C=C/c2ccccc2)cc1	inactive: 0.0178%	–
O=C(CCCC(=O)Nc1ccccc1Br)N/N=C/c1c(F)cccc1Cl	inactive: 18.2%	–
O=C(Oc1ccc(N(C(=O)c2ccncc2)S(=O)(=O)c2ccc(F)cc2)cc1)c1ccncc1	inactive: 20.7%	–
O=C(NNC(=O)C1CC1)c1ccc(F)cc1F	inactive: -5.49%	–
Cn1c(=O)n(C)c2cc(NS(=O)(=O)c3ccc(C(C)(C)C)cc3)ccc21	inactive: -2.16%	–
S=c1[nH]nc(NCCc2ccccc2)s1	inactive: 24.1%	–
Cc1ccc(NC(=O)C2CC(=O)n3c(nc4ccccc43)N2)cc1C (configuration not stated)	inactive: 4.28%	–
CCn1c(C(=O)NCc2ccc(C)cc2)cc2sc(Cl)cc21	inactive: -2.13%	–

Structure (SMILES)	growth rescue (activation)	Potency
N#CC(c1ccc(Cl)nn1)c1c(F)cccc1Cl (configuration not stated)	inactive: 2.62%	–
COc1ccc(CCN(Cc2cccs2)S(=O)(=O)c2ccc(S(=O)(=O)N(C)C3CCCCC3)cc2)cc1OC	inactive: -0.215%	–
O=C(CCc1ccccc1)NNC(=O)COc1ccc(Br)cc1	inactive: -0.227%	–
Fc1cc(Cl)ccc1NC1=NCCCCC1	inactive: 4.29%	–
NS(=O)(=O)c1ccc(CNC(=S)Nc2ccc(F)c(Cl)c2)cc1	inactive: 6.46%	–
NNC(=O)c1ccccc1-n1cccc1	inactive: -2.2%	–
COc1cc(CNC(=O)c2cc(-c3cc(C)cc(F)c3)n[nH]2)cc(OC)c1	inactive: 4.43%	–
CCc1nc2oc3ccccc3c(=O)c2c(=O)n1-c1ccc(C)cc1	inactive: 3.69%	–
CC1(c2ccc(OC(F)F)cc2)NC(=O)N(CC(=O)Nc2ccc(Cl)cc2F)C1=O (configuration not stated)	inactive: -10.6%	–
Cc1ccccc1OCCC(=O)NCCc1ccc(S(N)(=O)=O)cc1	inactive: -0.332%	–
COc1cc(/C=N/NC(=O)c2cccc(N3CCCC3=O)c2)ccc1O	inactive: -5.45%	–
COc1ccc(C(=O)OCC(=O)Nc2cccc(C(C)=O)c2)cc1OC	inactive: 12.2%	–
Cc1ccc(S(=O)(=O)N2CCN(C(C(=O)Nc3ccc(F)cc3)c3ccccc3)CC2)cc1 (configuration not stated)	inactive: -14.9%	–
COc1ccc(OC)c(NC(=O)c2nc(S(=O)(=O)Cc3ccccc3)ncc2Cl)c1	inactive: -8.73%	–
CC(=O)Nc1cccc(-c2cc(N3CCN(CCO)CC3)n3nccc3n2)c1	inactive: -9.71%	–
Cc1nc([N+](=O)[O-])c(C(=O)OCc2cccc(Br)c2)n1C	–	active: 12.6 µM
O=C(c1cc(Cl)nc2ccccc12)N1CCN(Cc2ccc3c(c2)OCO3)CC1	inactive: 31.8%	–
O=C(CNS(=O)(=O)c1cccc(Br)c1)NCCCc1ccccc1	inactive: 0.929%	–
CN(C)c1cccc(NC(=O)c2ccco2)c1	inactive: 26.1%	–
Nc1c(C(=O)Nc2ccccc2Cl)nnn1-c1ccc2c(c1)OCCO2	inactive: -5.8%	–
O=C(C1=C(O)C(=O)N(CCN2CCOCC2)C1c1cccc(Br)c1)c1cccs1 (configuration not stated)	inactive: 4.52%	–
COC(=O)N1N=C(c2ccc(Br)cc2)CC1(O)C(F)(F)F (configuration not stated)	inactive: 25.4%	–

Structure (SMILES)	growth rescue (activation)	Potency
O=c1[nH]c(CSc2ncc(C(F)(F)F)cc2Cl)nc2ccccc12	inactive: 19.6%	–
O=S(=O)(NCCc1ccccc1)c1cccc2cccnc12	inactive: 20.2%	–
COC(=O)c1ccccc1NC(=O)CSc1n[nH]c(-c2ccco2)n1	inactive: 11.4%	–
C/C(=N\NC(=O)c1cc(C(C)C)[nH]n1)c1ccncc1	inactive: 14.4%	–
CCC(C)C1Nc2ccc(C(=O)NCc3ccc4c(c3)OCO4)cc2NC1=O (configuration not stated)	inactive: 3.28%	–
COc1cccc(C(=O)NC2CC(C)(C)NC(C)(C)C2)c1OC	inactive: 1.07%	–
Cc1ccc(N/N=C(\C#N)C(N)=S)c(C)c1	inactive: -80.4%	–
O=C(O)CCCn1cc(NC(=O)COc2ccc(F)cc2F)cn1	inactive: 5.03%	–
Cc1c(Cl)cccc1NC(=S)NCCN1CCOCC1	inactive: -17.5%	–
Cc1cc(C)cc(NC(=O)Cn2cc(C(=O)c3ccncc3)c(=O)c3cc(C)c(C)cc32)c1	inactive: 0.628%	–
COC(=O)C1CC23C=CCN4CCC5(c6ccccc6NC15C2C)C43 (configuration not stated)	inactive: 4.7%	–
O=C(N/N=C/c1cccc(Br)c1)c1ccc(Br)cc1	inactive: 3.73%	–
CCc1nc2c(OCC(=O)C(C)(C)C)cccn2c1N(C)C(=O)CC(C)C	inactive: 2.07%	–
COC(=O)c1ccccc1S(=O)(=O)N1CCC(C(=O)OCC(=O)NCC(F)(F)F)CC1	inactive: 11%	–
CC(=O)c1c(C)[nH]c(C2=NNC(=NC(C)(C)C)SC2)c1C	inactive: 11.4%	–
CCOC(=O)c1c(NC(=O)C[n+]2ccc(N(C)C)cc2)sc(C)c1C	inactive: 2.27%	–
O=C1S/C(=C/c2ccccc2)C(=O)N1CC(O)Cn1c2ccccc2c2ccccc21 (configuration not stated)	inactive: 40%	–
Cc1ccnc(SCC(=O)c2cc3ccccc3o2)n1	inactive: -0.677%	–
COc1ccc(S(=O)(=O)N2CCOCC2)cc1NC(=O)Cc1ccccc1Cl	inactive: 8.81%	–
